# Test results as given in the supplement of paper PMC8728848.
# This is one part of the list.
# B1: Nc3LysM (protein)
# chain: QFTVPPDTTAEPNTIKTCTWWHVAGSGDSCTSIASTYGITSEQFARWDMETTDSPKNPSVATACKLTVGNSYCIENNFGQDDPPTPSISSSTLIGTATTSTTASTTTGNGISTPTPIQEGMETATTTTSSGNGITTPTPTQAGMETVGNCDRFHLVKSGDQCGTIASTYGITLANFYSWNPAVGTSCQSLWLDTYVCVRTIGFVPPKTTTTTTKKPTSTTSAGGVATPTPTQPGMETVSGCKKFHKGRGNVSTVASGDQCGTIATRYGISLANFYSWNPAVGSSCQTLWLDYYVCVGR
# How the values were obtained:
# Assay in all cases: glycan array binding signal (z-score within array); higher = stronger binding
# Settings in all cases: glycan notation: IUPAC condensed, linker removed
# [1] = molecular target: Neu5Ac(a2-6)Gal(b1-4)GlcNAc(b1-2)Man(a1-3)[Man(a1-6)]Man(b1-4)GlcNAc(b1-4)GlcNAc
# How it was run: (§1)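 Columns mapping to the same glycan were averaged after glycan names were converted to IUPAC-condensed notation. The data come from 3228 arrays in the Consortium for Functional Glycomics database, limited to those with an available protein sequence. Binding is reported as a within-array Z-score averaged across arrays of one protein sequence and across linkers.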
# [2] = molecular target: Neu5Ac(a2-6)Gal(b1-4)GlcNAc(b1-2)Man(a1-3)[Neu5Ac(a2-3)Gal(b1-4)GlcNAc(b1-2)Man(a1-6)]Man(b1-4)GlcNAc(b1-4)GlcNAc
# How it was run: as §1
# [3] = molecular target: Neu5Ac(a2-6)Gal(b1-4)GlcNAc(b1-2)Man(a1-3)[Neu5Ac(a2-6)Gal(b1-4)GlcNAc(b1-2)Man(a1-6)]Man(b1-4)GlcNAc(b1-4)GlcNAc
# How it was run: as §1
# [4] = molecular target: Neu5Ac(a2-6)Gal(b1-4)GlcNAc(b1-2)Man(a1-3)[Neu5Ac(a2-6)Gal(b1-4)GlcNAc(b1-2)Man(a1-6)]Man(b1-4)GlcNAc(b1-4)[Fuc(a1-6)]GlcNAc
# How it was run: as §1
# [5] = molecular target: Neu5Ac(a2-6)Gal(b1-4)GlcNAc(b1-2)Man(a1-6)Man(b1-4)GlcNAc(b1-4)GlcNAc
# How it was run: as §1
# [6] = molecular target: Neu5Ac(a2-6)Gal(b1-4)GlcNAc(b1-2)Man(a1-6)[Gal(b1-4)GlcNAc(b1-2)Man(a1-3)]Man(b1-4)GlcNAc(b1-4)GlcNAc
# How it was run: as §1
# [7] = molecular target: Neu5Ac(a2-6)Gal(b1-4)GlcNAc(b1-2)Man(a1-6)[GlcNAc(b1-2)Man(a1-3)]Man(b1-4)GlcNAc(b1-4)GlcNAc
# How it was run: as §1
# [8] = molecular target: Neu5Ac(a2-6)Gal(b1-4)GlcNAc(b1-2)Man(a1-6)[Man(a1-3)]Man(b1-4)GlcNAc(b1-4)GlcNAc
# How it was run: as §1
# [9] = molecular target: Neu5Ac(a2-6)Gal(b1-4)GlcNAc(b1-2)[Neu5Ac(a2-6)Gal(b1-4)GlcNAc(b1-4)]Man(a1-3)[GlcNAc(b1-4)][Neu5Ac(a2-6)Gal(b1-4)GlcNAc(b1-2)[Neu5Ac(a2-6)Gal(b1-4)GlcNAc(b1-6)]Man(a1-6)]Man(b1-4)GlcNAc(b1-4)GlcNAc
# How it was run: as §1
# [10] = molecular target: Neu5Ac(a2-6)Gal(b1-4)GlcNAc(b1-2)[Neu5Ac(a2-6)Gal(b1-4)GlcNAc(b1-4)]Man(a1-3)[GlcNAc(b1-4)][Neu5Ac(a2-6)Gal(b1-4)GlcNAc(b1-4)Man(a1-6)]Man(b1-4)GlcNAc(b1-4)GlcNAc
# How it was run: as §1
# [11] = molecular target: Neu5Ac(a2-6)Gal(b1-4)GlcNAc(b1-2)[Neu5Ac(a2-6)Gal(b1-4)GlcNAc(b1-6)]Man(a1-6)[Neu5Ac(a2-6)Gal(b1-4)GlcNAc(b1-2)Man(a1-3)][GlcNAc(b1-4)]Man(b1-4)GlcNAc(b1-4)GlcNAc
# How it was run: as §1
# [12] = molecular target: Neu5Ac(a2-6)Gal(b1-4)GlcNAc(b1-3)Gal(b1-3)GlcNAc
# How it was run: as §1
# [13] = molecular target: Neu5Ac(a2-6)Gal(b1-4)GlcNAc(b1-3)Gal(b1-4)GlcNAc
# How it was run: as §1
# [14] = molecular target: Neu5Ac(a2-6)Gal(b1-4)GlcNAc(b1-3)Gal(b1-4)GlcNAc(b1-2)Man(a1-3)[Neu5Ac(a2-6)Gal(b1-4)GlcNAc(b1-3)Gal(b1-4)GlcNAc(b1-2)Man(a1-6)]GalNAc
# How it was run: as §1
# [15] = molecular target: Neu5Ac(a2-6)Gal(b1-4)GlcNAc(b1-3)Gal(b1-4)GlcNAc(b1-3)Gal(b1-4)GlcNAc
# How it was run: as §1
# [16] = molecular target: Neu5Ac(a2-6)Gal(b1-4)GlcNAc(b1-3)Gal(b1-4)GlcNAc(b1-3)Gal(b1-4)GlcNAc(b1-2)Man(a1-3)[Neu5Ac(a2-6)Gal(b1-4)GlcNAc(b1-3)Gal(b1-4)GlcNAc(b1-3)Gal(b1-4)GlcNAc(b1-2)Man(a1-6)]GalNAc
# How it was run: as §1
# [17] = molecular target: Neu5Ac(a2-6)Gal(b1-4)GlcNAc(b1-3)Gal(b1-4)GlcNAc(b1-3)GalNAc
# How it was run: as §1
# [18] = molecular target: Neu5Ac(a2-6)Gal(b1-4)GlcNAc(b1-3)Gal(b1-4)GlcNAc(b1-3)[Neu5Ac(a2-6)Gal(b1-4)GlcNAc(b1-3)Gal(b1-4)GlcNAc(b1-6)]GalNAc
# How it was run: as §1
# [19] = molecular target: Neu5Ac(a2-6)Gal(b1-4)GlcNAc(b1-3)Gal(b1-4)GlcNAc(b1-6)[Gal(b1-3)]GalNAc
# How it was run: as §1
# [20] = molecular target: Neu5Ac(a2-6)Gal(b1-4)GlcNAc(b1-3)Gal(b1-4)[Fuc(a1-3)]GlcNAc(b1-3)Gal(b1-4)[Fuc(a1-3)]GlcNAc
# How it was run: as §1
# [21] = molecular target: Neu5Ac(a2-6)Gal(b1-4)GlcNAc(b1-3)GalNAc
# How it was run: as §1
# [22] = molecular target: Neu5Ac(a2-6)Gal(b1-4)GlcNAc(b1-3)[Neu5Ac(a2-6)Gal(b1-4)GlcNAc(b1-6)]GalNAc
# How it was run: as §1
# [23] = molecular target: Neu5Ac(a2-6)Gal(b1-4)GlcNAc(b1-6)GalNAc
# How it was run: as §1
# [24] = molecular target: Neu5Ac(a2-6)Gal(b1-4)GlcNAc(b1-6)[Gal(b1-3)GlcNAc(b1-3)]Gal(b1-4)Glc
# How it was run: as §1
# [25] = molecular target: Neu5Ac(a2-6)Gal(b1-4)GlcNAc(b1-6)[Gal(b1-3)]GalNAc
# How it was run: as §1
# [26] = molecular target: Neu5Ac(a2-6)Gal(b1-4)GlcNAc6S
# How it was run: as §1
# Neu5Ac(a2-6)GalNAc = molecular target: Neu5Ac(a2-6)GalNAc
# How it was run: as §1
# [27] = molecular target: Neu5Ac(a2-6)GalNAc(b1-4)GlcNAc
# How it was run: as §1
# [28] = molecular target: Neu5Ac(a2-6)GalNAc(b1-4)GlcNAc6S
# How it was run: as §1
# [29] = molecular target: Neu5Ac(a2-6)GlcNAc(b1-4)GlcNAc
# How it was run: as §1
# [30] = molecular target: Neu5Ac(a2-6)GlcNAc(b1-4)GlcNAc(b1-4)GlcNAc
# How it was run: as §1
binder,measurement,setting,value
B1,glycan array binding signal (z-score),[1],0.033
same,glycan array binding signal (z-score),[2],-0.15
same,glycan array binding signal (z-score),[3],-0.212
same,glycan array binding signal (z-score),[4],0.13
same,glycan array binding signal (z-score),[5],0.046
same,glycan array binding signal (z-score),[6],-0.163
same,glycan array binding signal (z-score),[7],0.31
same,glycan array binding signal (z-score),[8],0.07
same,glycan array binding signal (z-score),[9],-0.126
same,glycan array binding signal (z-score),[10],-0.235
same,glycan array binding signal (z-score),[11],-0.072
same,glycan array binding signal (z-score),[12],-0.049
same,glycan array binding signal (z-score),[13],-0.033
same,glycan array binding signal (z-score),[14],0.031
same,glycan array binding signal (z-score),[15],0.167
same,glycan array binding signal (z-score),[16],-0.155
same,glycan array binding signal (z-score),[17],-0.242
same,glycan array binding signal (z-score),[18],0.111
same,glycan array binding signal (z-score),[19],-0.099
same,glycan array binding signal (z-score),[20],-0.175
same,glycan array binding signal (z-score),[21],-0.141
same,glycan array binding signal (z-score),[22],-0.01
same,glycan array binding signal (z-score),[23],0.198
same,glycan array binding signal (z-score),[24],0.065
same,glycan array binding signal (z-score),[25],0.063
same,glycan array binding signal (z-score),[26],-0.183
same,glycan array binding signal (z-score),Neu5Ac(a2-6)GalNAc,0.071
same,glycan array binding signal (z-score),[27],-0.056
same,glycan array binding signal (z-score),[28],-0.194
same,glycan array binding signal (z-score),[29],-0.086
same,glycan array binding signal (z-score),[30],-0.143
